{
  "source": "the supplement of paper PMC12889115",
  "note": "This is one part of the list. Cut-off read from the data, not from the text of the source: active = 25% or less and inactive = the rest. Single values are uncertain, as repeats are few or missing.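 Note: compounds tested were the hits of an earlier 50 µM broth growth screen of a drug-like diversity library run with polymyxin B.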",
  "data": [
    {"test_system": "Salmonella enterica serovar Typhimurium SL1344", "test": "intramacrophage bacterial GFP load (SAFIRE), percent of DMSO control (% of DMSO); higher = more intracellular bacteria (less inhibition)", "conditions": "25 µM; system: infected RAW 264.7 macrophages", "procedure": "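Secondary screen of the 553 primary hits at 25 µM. (i) S. Typhimurium SL1344 grown in Mueller-Hinton broth with 0.5 µg/mL polymyxin B, OD600 read after 18 h. (ii) SAFIRE assay: RAW 264.7 macrophages infected with S. Typhimurium sifB::gfp (MOI 30); compound added 2 h post-infection; cells fixed at 18 h; GFP-positive pixel fraction per macrophage imaged by confocal microscopy and expressed as % of DMSO control.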", "values": [
      {"smiles": "CCOC(=O)CN(C)c1ccc(-c2nc(-c3cccc(OC)c3OC)no2)cn1", "intramacrophage bacterial GFP load": "inactive: 119"},
      {"smiles": "COc1cc(C)ccc1OCc1nc(C(=O)N2CC[C@@H]3CCCC[C@H]3C2)co1", "intramacrophage bacterial GFP load": "inactive: 46.2"},
      {"smiles": "Cc1c(C(=O)N(C)C(C)C)sc2ncnc(NC[C@H]3C[C@@H]4C=C[C@H]3C4)c12", "intramacrophage bacterial GFP load": "inactive: 89.7"},
      {"smiles": "COCCN1C(=O)CC(CC(=O)N(C)CCC23CC4CC(CC(C4)C2)C3)(c2ccccc2OC)C1=O", "note": "(centres undefined)", "intramacrophage bacterial GFP load": "inactive: 35.3"},
      {"smiles": "COCCN1C(=O)CC(CC(=O)N(Cc2ccccc2)CC2CC2)(c2ccccc2OC)C1=O", "note": "(centres undefined)", "intramacrophage bacterial GFP load": "inactive: 96.6"},
      {"smiles": "CCCCn1c(CN2CCCC(COC)C2)cnc1S(=O)(=O)CCCC(C)C", "note": "(centres undefined)", "intramacrophage bacterial GFP load": "inactive: 47"},
      {"smiles": "CN(C)Cc1ccc(C(=O)N2CCCC(CCc3cccc(F)c3)C2)o1", "note": "(centres undefined)", "intramacrophage bacterial GFP load": "active: 9.17"},
      {"smiles": "CC1CN(Cc2ccc3ncccc3c2)Cc2cc(Cl)ccc2O1", "note": "(centres undefined)", "intramacrophage bacterial GFP load": "inactive: 46.1"},
      {"smiles": "O=C(Nc1ccc(-c2cscn2)cc1)C1CCCN1Cc1ccccc1", "note": "(centres undefined)", "intramacrophage bacterial GFP load": "inactive: 57"},
      {"smiles": "COc1cccc(OC)c1-c1cnnc(NCc2cccc(C(F)(F)F)c2)n1", "intramacrophage bacterial GFP load": "inactive: 109"},
      {"smiles": "Cc1ccc2c(c1)CN(CC(=O)NCc1cn3c(C)cccc3n1)CC(c1ccsc1)O2", "note": "(centres undefined)", "intramacrophage bacterial GFP load": "inactive: 52.6"},
      {"smiles": "CN(C(=O)CC1(c2ccc(-c3ccccc3)cc2)CC(=O)N(C2CC2)C1=O)C1CCOCC1", "note": "(centres undefined)", "intramacrophage bacterial GFP load": "inactive: 101"},
      {"smiles": "CCOC(=O)C1(Cc2ccc(F)cc2)CCCN(C(=O)c2cc(C3CC3)n[nH]2)C1", "note": "(centres undefined)", "intramacrophage bacterial GFP load": "inactive: 64.1"},
      {"smiles": "CN(Cc1ccc(C(F)(F)F)cc1)C(=O)c1cn(Cc2ccc(F)cc2)nn1", "intramacrophage bacterial GFP load": "inactive: 80.5"}
    ]}
  ]
}
